# In the supplement of paper PMC8728848:
# This is one part of the list.
# B1: Clec18C (Homo sapiens) (protein)
# chain: MLHPETSPGRGHLLAVLLALLGTAWAEVWPPQLQEQAPMAGALNRKESFLLLSLHNRLRSWVQPPAADMRRLDWSDSLAQLAQARAALCGTPTPSLASGLWRTLQVGWNMQLLPAGLVSFVEVVSLWFAEGQRYSHAAGECARNATCTHYTQLVWATSSQLGCGRHLCSAGQAAIEAFVCAYSPRGNWEVNGKTIVPYKKGAWCSLCTASVSGCFKAWDHAGGLCEVPRNPCRMSCQNHGRLNISTCHCHCPPGYTGRYCQVRCSLQCVHGRLREEECSCVCDIGYGGAQCATKVHFPFHTCDLRIDGDCFMVSSEADTYYRARMKCQRKGGVLAQIKSQKVQDILAFYLGRLETTNEVIDSDFETRNFWIGLTYKTAKDSFRWATGEHQAFTSFAFGQPDNHGFGNCVELQASAAFNWNNQRCKTRNRYICQFAQEHISRWGPGS
# Legend:
# Assay in all cases: glycan array binding signal (z-score within array); higher = stronger binding
# Details in all cases: glycan notation: IUPAC condensed, linker removed
# [1] = molecular target: Neu5Ac(a2-6)Gal(b1-4)GlcNAc(b1-2)Man(a1-3)[Neu5Ac(a2-3)Gal(b1-4)GlcNAc(b1-2)Man(a1-6)]Man(b1-4)GlcNAc(b1-4)GlcNAc
# How it was run: (§1)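 The binding signal is a Z-score computed within each array. Data were drawn from 3228 arrays in the Consortium for Functional Glycomics database, restricted to those with a known protein sequence. Scores were averaged over arrays of the same protein sequence at different concentrations or buffers, and over linkers, and negative values can be taken as non-binding.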
# [2] = molecular target: Neu5Ac(a2-6)Gal(b1-4)GlcNAc(b1-2)Man(a1-3)[Neu5Ac(a2-6)Gal(b1-4)GlcNAc(b1-2)Man(a1-6)]Man(b1-4)GlcNAc(b1-4)GlcNAc
# How it was run: as §1
# [3] = molecular target: Neu5Ac(a2-6)Gal(b1-4)GlcNAc(b1-2)Man(a1-3)[Neu5Ac(a2-6)Gal(b1-4)GlcNAc(b1-2)Man(a1-6)]Man(b1-4)GlcNAc(b1-4)[Fuc(a1-6)]GlcNAc
# How it was run: as §1
# [4] = molecular target: Neu5Ac(a2-6)Gal(b1-4)GlcNAc(b1-2)Man(a1-6)Man(b1-4)GlcNAc(b1-4)GlcNAc
# How it was run: as §1
# [5] = molecular target: Neu5Ac(a2-6)Gal(b1-4)GlcNAc(b1-2)Man(a1-6)[Gal(b1-4)GlcNAc(b1-2)Man(a1-3)]Man(b1-4)GlcNAc(b1-4)GlcNAc
# How it was run: as §1
# [6] = molecular target: Neu5Ac(a2-6)Gal(b1-4)GlcNAc(b1-2)Man(a1-6)[GlcNAc(b1-2)Man(a1-3)]Man(b1-4)GlcNAc(b1-4)GlcNAc
# How it was run: as §1
# [7] = molecular target: Neu5Ac(a2-6)Gal(b1-4)GlcNAc(b1-2)Man(a1-6)[Man(a1-3)]Man(b1-4)GlcNAc(b1-4)GlcNAc
# How it was run: as §1
# [8] = molecular target: Neu5Ac(a2-6)Gal(b1-4)GlcNAc(b1-2)[Neu5Ac(a2-6)Gal(b1-4)GlcNAc(b1-4)]Man(a1-3)[GlcNAc(b1-4)][Neu5Ac(a2-6)Gal(b1-4)GlcNAc(b1-2)[Neu5Ac(a2-6)Gal(b1-4)GlcNAc(b1-6)]Man(a1-6)]Man(b1-4)GlcNAc(b1-4)GlcNAc
# How it was run: as §1
# [9] = molecular target: Neu5Ac(a2-6)Gal(b1-4)GlcNAc(b1-2)[Neu5Ac(a2-6)Gal(b1-4)GlcNAc(b1-4)]Man(a1-3)[GlcNAc(b1-4)][Neu5Ac(a2-6)Gal(b1-4)GlcNAc(b1-4)Man(a1-6)]Man(b1-4)GlcNAc(b1-4)GlcNAc
# How it was run: as §1
# [10] = molecular target: Neu5Ac(a2-6)Gal(b1-4)GlcNAc(b1-2)[Neu5Ac(a2-6)Gal(b1-4)GlcNAc(b1-6)]Man(a1-6)[Neu5Ac(a2-6)Gal(b1-4)GlcNAc(b1-2)Man(a1-3)][GlcNAc(b1-4)]Man(b1-4)GlcNAc(b1-4)GlcNAc
# How it was run: as §1
# [11] = molecular target: Neu5Ac(a2-6)Gal(b1-4)GlcNAc(b1-3)Gal(b1-3)GlcNAc
# How it was run: as §1
# [12] = molecular target: Neu5Ac(a2-6)Gal(b1-4)GlcNAc(b1-3)Gal(b1-4)GlcNAc
# How it was run: as §1
# [13] = molecular target: Neu5Ac(a2-6)Gal(b1-4)GlcNAc(b1-3)Gal(b1-4)GlcNAc(b1-2)Man(a1-3)[Neu5Ac(a2-6)Gal(b1-4)GlcNAc(b1-3)Gal(b1-4)GlcNAc(b1-2)Man(a1-6)]GalNAc
# How it was run: as §1
# [14] = molecular target: Neu5Ac(a2-6)Gal(b1-4)GlcNAc(b1-3)Gal(b1-4)GlcNAc(b1-3)Gal(b1-4)GlcNAc
# How it was run: as §1
# [15] = molecular target: Neu5Ac(a2-6)Gal(b1-4)GlcNAc(b1-3)Gal(b1-4)GlcNAc(b1-3)Gal(b1-4)GlcNAc(b1-2)Man(a1-3)[Neu5Ac(a2-6)Gal(b1-4)GlcNAc(b1-3)Gal(b1-4)GlcNAc(b1-3)Gal(b1-4)GlcNAc(b1-2)Man(a1-6)]GalNAc
# How it was run: as §1
# [16] = molecular target: Neu5Ac(a2-6)Gal(b1-4)GlcNAc(b1-3)Gal(b1-4)GlcNAc(b1-3)GalNAc
# How it was run: as §1
# [17] = molecular target: Neu5Ac(a2-6)Gal(b1-4)GlcNAc(b1-3)Gal(b1-4)GlcNAc(b1-3)[Neu5Ac(a2-6)Gal(b1-4)GlcNAc(b1-3)Gal(b1-4)GlcNAc(b1-6)]GalNAc
# How it was run: as §1
# [18] = molecular target: Neu5Ac(a2-6)Gal(b1-4)GlcNAc(b1-3)Gal(b1-4)GlcNAc(b1-6)[Gal(b1-3)]GalNAc
# How it was run: as §1
# [19] = molecular target: Neu5Ac(a2-6)Gal(b1-4)GlcNAc(b1-3)Gal(b1-4)[Fuc(a1-3)]GlcNAc(b1-3)Gal(b1-4)[Fuc(a1-3)]GlcNAc
# How it was run: as §1
# [20] = molecular target: Neu5Ac(a2-6)Gal(b1-4)GlcNAc(b1-3)GalNAc
# How it was run: as §1
# [21] = molecular target: Neu5Ac(a2-6)Gal(b1-4)GlcNAc(b1-3)[Neu5Ac(a2-6)Gal(b1-4)GlcNAc(b1-6)]GalNAc
# How it was run: as §1
# [22] = molecular target: Neu5Ac(a2-6)Gal(b1-4)GlcNAc(b1-6)GalNAc
# How it was run: as §1
# [23] = molecular target: Neu5Ac(a2-6)Gal(b1-4)GlcNAc(b1-6)[Gal(b1-3)GlcNAc(b1-3)]Gal(b1-4)Glc
# How it was run: as §1
# [24] = molecular target: Neu5Ac(a2-6)Gal(b1-4)GlcNAc(b1-6)[Gal(b1-3)]GalNAc
# How it was run: as §1
# [25] = molecular target: Neu5Ac(a2-6)Gal(b1-4)GlcNAc6S
# How it was run: as §1
# Neu5Ac(a2-6)GalNAc = molecular target: Neu5Ac(a2-6)GalNAc
# How it was run: as §1
# [26] = molecular target: Neu5Ac(a2-6)GalNAc(b1-4)GlcNAc
# How it was run: as §1
# [27] = molecular target: Neu5Ac(a2-6)GalNAc(b1-4)GlcNAc6S
# How it was run: as §1
# [28] = molecular target: Neu5Ac(a2-6)GlcNAc(b1-4)GlcNAc
# How it was run: as §1
# [29] = molecular target: Neu5Ac(a2-6)GlcNAc(b1-4)GlcNAc(b1-4)GlcNAc
# How it was run: as §1
binder,measurement,setting,value
B1,glycan array binding signal (z-score),[1],-0.395
same,glycan array binding signal (z-score),[2],0.183
same,glycan array binding signal (z-score),[3],-0.029
same,glycan array binding signal (z-score),[4],-0.555
same,glycan array binding signal (z-score),[5],-0.47
same,glycan array binding signal (z-score),[6],-0.097
same,glycan array binding signal (z-score),[7],-0.523
same,glycan array binding signal (z-score),[8],0.16
same,glycan array binding signal (z-score),[9],0.259
same,glycan array binding signal (z-score),[10],-0.351
same,glycan array binding signal (z-score),[11],0.131
same,glycan array binding signal (z-score),[12],3.16
same,glycan array binding signal (z-score),[13],-0.357
same,glycan array binding signal (z-score),[14],-0.228
same,glycan array binding signal (z-score),[15],-0.119
same,glycan array binding signal (z-score),[16],-0.565
same,glycan array binding signal (z-score),[17],-0.383
same,glycan array binding signal (z-score),[18],-0.392
same,glycan array binding signal (z-score),[19],0.641
same,glycan array binding signal (z-score),[20],-0.245
same,glycan array binding signal (z-score),[21],-0.474
same,glycan array binding signal (z-score),[22],-0.506
same,glycan array binding signal (z-score),[23],-0.464
same,glycan array binding signal (z-score),[24],-0.511
same,glycan array binding signal (z-score),[25],-0.289
same,glycan array binding signal (z-score),Neu5Ac(a2-6)GalNAc,5.42
same,glycan array binding signal (z-score),[26],-0.567
same,glycan array binding signal (z-score),[27],0.738
same,glycan array binding signal (z-score),[28],-0.459
same,glycan array binding signal (z-score),[29],-0.581
